#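 1) Cells in 96-well plates. 2) Compound, 48 h, 5 concentrations. 3) Linear interpolation between surrounding doses. 4) Unreached endpoint = highest concentration. GI50 marks 50% less growth. At the TGI there is no net growth.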
# System: NCI-H322M lung
# Experiment: DTP human tumour cell line panel, 48 h
compound,measurement,value
CS(=O)(=O)c1nccc(-c2c(-c3ccc(F)c(OCc4ccc(F)cc4)c3)nc3sccn23)n1,GI50,14.6 µM
same,TGI,28 µM

# Reference: PubChem BioAssay (NCI)
